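Five concentrations, 48 hours, 96-well plates. The concentration for 50% growth inhibition is given as GI50.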 Activity calls are given as the source filed them. No stated cut-off is given here; in the data, active = GI50 up to about 1.1 µM and inactive = higher.

The subject of this experiment is NCI-H322M. Kind of experiment: NCI-60 cell line screen, 48 h.
As to `O=[N+]([O-])c1ccc(C2=Nn3c(nnc3-c3ccc(Cl)cc3)SC2)o1`, the GI50 was inactive: 14.8 µM.

Turning to `NS(=O)(=O)c1nnc(NS(=O)(=O)C(F)(F)F)s1`, the GI50 was inactive: > 100 µM. The figure for `O=C(CN1CCOCC1)Nc1nc(-c2ccc(Cl)cc2)cs1` is inactive: 41.7 µM. For `O=C(O)c1c(-c2c3ccc(=O)cc-3oc3cc(O)ccc23)cc2ccccc2c1-c1ccccc1` the value was inactive: > 100 µM; for `Cc1nccn1S(=O)(=O)c1ccc(Br)cc1Br`, inactive: 52.5 µM.

`O=C1/C(=N/O)Cc2c(Br)ccc(Br)c21`: the GI50 is inactive: 69.5 µM. The figure for `Cc1c(C)c(C)c(-n2c(=O)n(C)c(=O)n2C(C)(C)C)c(C)c1C` is inactive: > 100 µM; for `O=C1C2CCCCC2C(=O)N1n1c(Cc2ccc(Cl)cc2)n[nH]c1=O` (configuration not stated) it is inactive: > 100 µM; for `CCN(CC)C(=S)SCC(=O)Nc1nc2c(s1)CCCC2` it is inactive: > 100 µM. As for `O=C(CC(=O)Nc1ccccc1Cl)NNC(c1cc(/N=N/c2ccc(Br)cc2)ccc1O)P(O)O` (configuration not stated), the GI50 is inactive: 1.37 µM. The figure for `O=C(/C=C/c1cccc([N+](=O)[O-])c1)c1cccnc1` is inactive: > 60.3 µM; for `CO[C@@]12C[C@H](CNC(=O)c3ccc[nH]3)O[C@@H]1NC(=O)N2` it is inactive: > 100 µM. The figure for `O=C(N/N=C/c1ccccc1)c1c(F)c(F)c(F)c(F)c1F` is inactive: > 100 µM. The figure for `Cc1ccc2c(C(=O)c3c(C)n(CCN4CCOCC4)c4ccccc34)cccc2c1` is inactive: 24.7 µM; for `O=C1c2cscc2C(=O)c2c(OCc3ccccc3)ccc(OCc3ccccc3)c21` it is inactive: > 100 µM; for `O=S(=O)(c1ccccc1)n1cc(C[P+](c2ccccc2)(c2ccccc2)c2ccccc2)c2ccccc21` it is inactive: 14 µM. For the compound `NC(=S)N/N=C(/CC(=O)c1ccc([N+](=O)[O-])cc1)C(=O)Nc1ncc([N+](=O)[O-])s1`, the GI50 was inactive: > 100 µM.

`C=C1C(=O)OC2/C=C(\C)C3OC3/C=C(/C(=O)OC)C(OC(C)=O)C(OC(=O)C(C)(O)C(C)OC(C)=O)C12` (configuration not stated): the GI50 was inactive: 7.67 µM. For `COC(=O)C1C(C(=O)OC)N(Cc2ccccc2)C(=O)N1Cc1ccccc1` (configuration not stated) the value was inactive: > 100 µM. For `CC1=CC(=O)CC(C)(C)C1(O)/C=C/C(C)=C/C(=O)O` (configuration not stated) the value was inactive: > 100 µM; for `CC1=NN(c2nc(N)nc(/C(C#N)=C\c3ccc(-c4ccc([N+](=O)[O-])cc4)o3)n2)C(C)(C)C1`, inactive: > 100 µM. For `C=C1[C@H](OCC(C)C)[C@@H](OC(=O)C(C)CC)[C@@H](O)C(C)(C)/C=C/[C@H](C)C(=O)[C@@]2(O)C[C@H](C)[C@H](O)[C@@H]2[C@H]1OC(=O)C(C)CC` (some centres not stated) the value was inactive: 6.93 µM.

As to `Cc1ccc2nc(-c3ccc(N)c(Br)c3)sc2c1`, the GI50 is inactive: 36.6 µM. With `O=C(CCc1cc(-c2ccco2)n(-c2ccc([N+](=O)[O-])cc2[N+](=O)[O-])n1)Nc1ccccc1`, the GI50 is inactive: > 100 µM.

As for `O=C(N/N=C1/C(=O)N(c2ccc(Cl)cc2Cl)C(=O)C(=O)C1c1nc2ccccc2o1)c1ccccc1O` (configuration not stated), the GI50 was inactive: 41.3 µM. As for `O=NN1C(c2ccccc2)CNC(=O)CC1c1ccccc1` (configuration not stated), the GI50 is inactive: 99.5 µM. For `CCc1nc(Cl)nc(Cl)c1Cl` the value was inactive: 2.6 µM; for `CC1(C)OCC2OC3([C@H](O)CCO)OC(C)(C)OC3C2O1` (some centres not stated), inactive: > 100 µM; for `CC1=NN(c2nc(N)nc(COc3ccc(N)cc3)n2)C(C)(C)C1`, inactive: > 100 µM. For `CCN(CC)CCOc1ccc(N2Cc3ccccc3C2=O)cc1` the value was inactive: > 10 µM. For `O=Cc1ccc2[nH]c(=O)oc2c1` the value was inactive: > 100 µM; for `CC1C(=NO)C(C)C(c2ccccc2)N(N=O)C1c1ccccc1` (configuration not stated), inactive: 16.6 µM; for `Cc1cccc(N/C(Sc2ccccc2)=C(/C(Cl)=C(Cl)Cl)[N+](=O)[O-])c1`, inactive: 21.2 µM. On to `CN1C(=O)c2c(c3c4ccccc4n(C)c3c3c2c2ccccc2n3C)C1=O`, for which the GI50 is inactive: > 100 µM.

Take `CNCCCCN(C)/[N+]([O-])=N\O`: the GI50 is inactive: > 100 µM. For `O=S(=O)(Sc1ccc(Cl)cc1)c1ccc(Cl)cc1` the value was inactive: 23.8 µM; for `Cc1ccnc2nc3[nH]c4ccccc4c3cc12`, inactive: > 100 µM.

With `O=C(N/N=C1\C(=O)Nc2c(Cl)cc(Cl)cc21)C(=O)Nc1cccc(C(F)(F)F)c1`, the GI50 is inactive: > 100 µM. For `Cn1c(=O)n2n(c1=O)C1C(=CC2)C2C=CC1n1c(=O)n(C)c(=O)n12` (configuration not stated) the value was inactive: > 100 µM; for `COC(=O)c1ccc(OCc2ccc3oc(=O)c(-c4ccccc4)nc3c2)cc1`, inactive: > 100 µM; for `CCOc1ccccc1NC(=O)CCc1n[nH]c(=S)o1`, inactive: > 100 µM.

On to `CC1=CCCC(C)(O)C2CC(CCC3(C)OC3CC1)C(C)C(=O)O2` (configuration not stated), for which the GI50 was inactive: > 100 µM. The figure for `CC12CCC(C(Br)(Br)C1=O)C2(C)C` (configuration not stated) is inactive: 8.99 µM; for `N#CC(c1ccccc1)N(CCc1ccccc1)C(=O)c1ccc(C(=O)N(CCc2ccccc2)C(C#N)c2ccccc2)cc1` (configuration not stated) it is inactive: 26.2 µM. In the case of `Nc1nc(Nc2ccc(Cl)cc2)sc1C(=O)c1c[nH]c2ccccc12`, the GI50 is inactive: 18.9 µM. The figure for `CCN1CC2=C(NC(=S)NC2c2ccc(Cl)cc2)/C(=C/c2ccc(Cl)cc2)C1` (configuration not stated) is inactive: > 100 µM; for `c1ccc([C@@H]2N[C@@]3(CO[Si](c4ccccc4)(c4ccccc4)c4ccccc4)CC[C@H]4CN[C@@H]2[C@H]43)cc1` it is inactive: 10.5 µM.

`CC(=O)Oc1c(Br)ccc2cc(C(Br)Br)c(C(=O)c3ccccc3)nc12`: the GI50 was inactive: 18.5 µM. The figure for `O=C(/C=C\c1cccc2ccccc12)c1ccc(F)cc1` is inactive: 21.5 µM; for `Cc1cccc(-c2nnc(S)[nH]2)c1` it is inactive: > 100 µM; for `CCOC(=O)/C=C(\C(=O)OCC)n1ccc(=O)[nH]c1=O` it is inactive: 32.8 µM. The figure for `C=C1CC2(CCCC3(CC(=C)C(=O)O3)C2(C)C)OC1=O` (configuration not stated) is inactive: 14.3 µM; for `CC(=O)Oc1ccc2cc(Oc3cc(Cl)c(Cl)cc3Cl)c(=O)oc2c1` it is inactive: 23.4 µM. For `CCCC/C=C1\CCC(CN2CCCCC2)C1=O` (configuration not stated) the value was inactive: 32.5 µM. On to `O=Cc1cc([N+](=O)[O-])no1`, for which the GI50 was inactive: 47.8 µM. For `CCOC(=O)c1c2ccc(/C=C/c3ccccc3)ccc-2c(C(=O)OCC)c1N` the value was inactive: > 100 µM; for `CCNCCNC(=O)c1ccc(Br)cc1`, inactive: > 100 µM; for `COC(=O)c1cc(OC(C)=O)c2c(OC)ccc(OC)c2c1`, inactive: > 100 µM.

Consider `CCCCCCCCCC1C(C)c2c([nH]c3ccccc23)C2C(=O)N(c3ccccc3)C(=O)C21` (configuration not stated), for which the GI50 is inactive: 15.2 µM. In the case of `COc1ccc(-n2c3c(c4cc(O)ccc42)Cc2ccccc2C3=O)cc1`, the GI50 is inactive: 77.8 µM. The figure for `Cc1c(NC(=S)NC(=O)c2ccc([N+](=O)[O-])cc2)c(=O)n(-c2ccccc2)n1C` is inactive: > 100 µM; for `COc1cccc(/C=N/C23CC4CC(CC(C4)C2)C3)c1` it is inactive: > 100 µM. For the compound `COC(=O)c1cc(C)ccc1CC(Cc1ccccc1C)C(=O)OC` (configuration not stated), the GI50 is inactive: > 100 µM. The figure for `CN(C)CCNC(=O)c1cccc2nc3c(C(=O)NCCN(C)C)cccc3nc12` is active: 0.695 µM; for `CC(C(=O)O)/C(=C\c1ccc2c(c1)OCO2)C(=O)O` (configuration not stated) it is inactive: > 52.2 µM; for `Cc1ccnc2c1C(=O)C1=C(OC(C)(C)CC1O)C2=O` (configuration not stated) it is inactive: 11.1 µM.

For the compound `COc1ccc(C2C(Cl)C(=O)N2NC(=O)Cc2ccccc2)cc1` (configuration not stated), the GI50 is inactive: > 100 µM.

As for `CCOC(=O)C1(Cc2ccccc2)CCCCCN1` (configuration not stated), the GI50 is inactive: > 100 µM. The figure for `O=c1cnn(C2OC(CO)C(O)C2O)c(=S)[nH]1` (configuration not stated) is inactive: 88.9 µM.

For the compound `O=C1C=CC(=O)c2c1ccc1c3ccccc3n(CCCCCCCCn3c4ccccc4c4ccc5c(c43)C(=O)C=CC5=O)c21`, the GI50 is inactive: > 100 µM. On to `O=C1c2ccccc2C(=O)c2nc(-c3ccccc3)c(-c3ccccc3)nc21`, for which the GI50 was inactive: > 49.7 µM. For `Cc1ccc2nc(-c3ccc(N)c(I)c3)sc2c1` the value was inactive: 9.53 µM. The figure for `C[C@@H](c1ccccc1)N1C[C@@H](c2ccc3c(c2)OCO3)[C@@H]2C(=O)CCC[C@@H]21` is inactive: > 100 µM; for `CCC1(O)CC(OC2CC(N(C)C)C(OC3CC(O)C(OC4CCC(=O)C(C)O4)C(C)O3)C(C)O2)c2c(O)c3c(c(O)c2C1C(=O)OC)C(=O)c1cccc(O)c1C3=O` (configuration not stated) it is active: 0.01 µM; for `COC(=O)[C@@H]1C(=O)O[C@@H](c2ccc3c(c2)OCO3)[C@@H]1C(=O)OC.COC(=O)[C@H]1C(=O)O[C@@H](c2ccc3c(c2)OCO3)[C@@H]1C(=O)OC` it is inactive: > 100 µM. For `CC(=O)OCC1=C(C)C(OC(=O)C(OC(C)=O)[C@@H](NC(=O)c2ccccc2)c2ccccc2)CCC1(C)C` (some centres not stated) the value was inactive: > 100 µM. Regarding `O=C1NC(Cc2c[nH]c3ccccc23)C(=O)N2C(C3CCCCC3)c3[nH]c4ccccc4c3C[C@@H]12` (some centres not stated), the GI50 is inactive: 21.1 µM.

With `COc1cc2c(NCCCCCO)ncnc2c(OC)c1OC`, the GI50 is inactive: > 100 µM. The figure for `CC(C)C1CC[C@@H](C)C[C@@]1(O)CC(N)=O` (some centres not stated) is inactive: > 100 µM. Regarding `COc1ccc(/C=C/C(=O)c2cc(CN(C)C)c(O)c(CN(C)C)c2)cc1`, the GI50 is inactive: 27.9 µM. For `O=S(=O)(N/C(=N\O)Nc1ccc(Cl)cc1)c1ccc(S(=O)(=O)c2ccccc2)s1` the value was inactive: 19.3 µM. The figure for `COc1cc([C@@H]2c3cc4c(c(O)c3C[C@H]3COC(=O)[C@@H]32)OCO4)cc(OC)c1O` is active: 0.0237 µM.
